This passage reports binding results from publication PMC5402319.

This data set addresses T1, His6-σ8 (SigB-like sigma factor) (Streptomyces avermitilis) (UniProt Q82PY0).
T1 sequence: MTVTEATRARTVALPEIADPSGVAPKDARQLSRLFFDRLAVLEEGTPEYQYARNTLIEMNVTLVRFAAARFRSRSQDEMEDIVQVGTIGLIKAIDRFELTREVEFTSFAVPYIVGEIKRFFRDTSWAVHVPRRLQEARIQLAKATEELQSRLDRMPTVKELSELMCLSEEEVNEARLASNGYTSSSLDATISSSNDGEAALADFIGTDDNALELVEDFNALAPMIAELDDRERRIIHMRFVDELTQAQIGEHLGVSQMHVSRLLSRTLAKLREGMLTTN
In words: EMSA. The following applies: EMSA with 0.15 nM DIG-labeled probe, 0.25-1 uM His6-σ8, ~300-fold excess unlabeled competitor; buffer, salt, pH and temperature not given (as in Sun et al. …). (In general: A gel shift assay detects complexes by their altered migration in electrophoresis.)
Take “ATCAACATCGTGAAACACCTCCAGGGTTCAAGGTCAGGCAGTGCTGCCAATGCGTTCACCTGACATCGTTGTAACATGTCATCCAAGCGATGACAAGTTTGACGTCATCAAGATGACGACATGGCCATTGGAGGCCCGATGACCAGGGACGAT (double strand) [hsp18_1p]”: the binding entry is given as “no binding”. As for “GAGAAGCCGAGCACCTGGGCGTCACGGTCGGCGAACTCGTCGTTCAGCTTGCCGAAGGCCGCGATCTCGGTCGGGCACACGAAGGTGAAGTCCTTGGGCCACGCGAAGATGACCTTCCACTGACCCTCGTAGGTCTTGTGGTTGATCTGCTGGAACTCATTGCCCTTCTCCAGCG (double strand) [oxyR_ahpCD_int]”, the entry is “binds”; as for “CGCAAGATCTATGTCGACCTCACGAAGGAGCAGATCAAGGACTCCCCGGAGTTCGACAAGGACAAGCACGCCGGTGACGCCGGCTACCACGAGCAGGTCGGCAGCTACTACCAGAGCCACCGACGCGTCTGACCTCACAGCGCCACCCCGCAAGTGGGGCCGACCAAAGTGTCTTTGGTCGGCCCC (double strand) [sig8p]”, “binds”; as for “GTGGCGTTCCTCCTCGCTGCGGGCATGCCGGTCGGGACGGCGTGGAGCGCCCTCCAAGACATGCGAACGCCGGAGCGAGCCGCTCCATTTCCCCTTTGCTCATCTTTGCCGAATCATTACCGCGGATCGCTCAACCGTTCGACGAAAGGGTGCGTGAACGCCGGACGTCCCGGAAGCCGGGGCCGCATACCCTCGTACCCATGACAGCCCGCGCAGCCTCCCGCCCCGTGGGAACGGTGACGCGCGGGACCACGAACCCGAAC (double strand) [mshAp]”, “binds”. In the case of “TGGACCCACCCTACGAGGGGTCTCCCCCTCACTTGCCTCGCGGCCTGCTGTCATCTCGTCGTCGAGCACGTGATCGGCCCGAGTGCTCATGGTGTCCTCCCGTGAGTGCCCCGGTCGGCGTATCGGTGGCGGAGCGGGACACGGGTGCGGGAGCTCCGCATCAGGCGGCCGTCCGGAGATCGGATCGGCAGTCCCGGCAGAGACCGGGGTCAGGGGCGCGGAAGGCGCGGTCGCAGCCGTCACAGGTCT (double strand) [mshBp]”, the binding result is “no binding”. “GCCATACGGTGTCGTCGCTGGTCATGCGTACGAGGGTACGGGGAGCAGGGGGCAAAGGGGAGGCAACGGCAACCTGCTTGTAACCACGAACCCCCTGTTGCGCTACGCGCGTTGAATCTAGGCTGCGCGAACCACCGCCTTGGCACAGCCTTTACACAACTCACGCAGGGGGGCCCATGCCGCCGACGTACCGGCACAGACGTATCCACCGCATCCTCTCC (double strand) [mshDp]”: the binding entry was “binds”.

In the case of “AATCAAGCATTCCGCACCGGGAGCGCTGGTGAGGAGCAGGGAATCTTTGCAGTCTCGTGAACACGGGAATCTCCACGGCCGCGGGAACGCTGAAGGCGGGGATGACCGGACTTGTGGTGTGCGTGGTGGTGCTCGTGGTGGCGAGCGCGTACGGAGTGCTGCATCGGCGGCGGAGCGGGAGAGTGAGA (double strand) [trxA4p]”, the binding result is on record as “no binding”.

As for “AGACTACCGCCTCTTCAGACCCCCGATTCGGCCACCCCACGTCAAGAATCCATTACAAAGCGTCTGCGACTCATCGGCAGAGCGTCCACCAGTCGTTCACAACCGGCCACGCATTGAGGCCAATCGGTGACCAGAATCCTCTTGACCGACCGAGAACCGGCTGGATTGGATCAGTAGACAAAGGTGCCGGACTTCCGCGCACCCCGCCATCTCCATGCTCCCCACACCATCCGAGCCCGGAACGGGAATTGTGACTTCTACCGCGAAGAGCAGCAGGTCAAGGACGAGAAACCC (double strand) [opuBC1p]”, the binding result was “binds”. Turning to “CGAACTGGATCATGAGGTGTCCCTTGCCCGGCCTGCATATCGTCATGCAGAGTTCTCGGTGTCTGAATAGATTGTCAATGGTCCGGCGTTAAGCGCTGGTTACTTATGACCGCCAGGCAAGATCCGATGTCCGGGTTGAGGGGAGTTTGCGCGTGATGTCGTCTCGGATCGTGGATACGTCGACCGTGGAAGTGAGCCCCGCGTCGACCGGGATCGTGGTCCTCGACGGCTGTGGAATC (double strand) [opuBA1p]”, the binding entry is “binds”. As for “TGACCCCTCCCGCCACTTCCCCCGGCACTTTCCATCGCTTCTCGCCGTGAATTGCAGAGATTCCCCACACACTTATCCCGTTATTAATTCAGAACAGCTTCCCGCATTCTTCTGCCCGCTTTCTTTCGTGCTAAACGCAAAGATTTCGCGAACACCAACCGGCTTAATTCGGGCAGGTCCCGCACGGGTCGTCCACTTGTGATCGACTCCACATCGCACCCCTTTCCTCCCGTATTTTCCGGACAAAATGGGGGTTATCGACGC (double strand) [ectAp]”, the entry is “binds”; as for “GCTCCCAGGTGAACTCTGGGCGACGAGTGTTCGAGGTCGCACGCCGATGGCTGTGGTCAGGTGGGACGACATGCCTAACCTGGATGCATGGAC (double strand) [phoRp]”, “no binding”.

In the case of “ATCGCTCTCTTCCCAGGCGCCCCATGGCATCTGTGTGCGGCGCCCCATCTCCGTGTGCCCGGACACACCGGGAATGCTGGCCCCTTAGGATCCGTTGGGTGGGGTGAGAGTTCTGAGAGAGGCTCCCACCGGTAGTACGAAGCAGTCTCCAGAGACGAGGAATCAAGCCGTGAGCGAC (double strand) [trxB1p]”, the binding entry was “no binding”. As for “CGGTGGCTGAGTTCTGGTTGTCGGCGACCGGGGCGCCGGACTCGGTCGTAAGCACGCGCTTCGACATCGTGCACCTTCCATGCGAGGGGCAGCGGAAACCTTCTTCCGCTTCGTGGAGCCTAGGTATGGGACCTTCTAGGCGTCAACACTTTGTTGAAGTTGGTTCCGGGCGGCGCCACCGCTTGGGCGCGACGGGACAGATGTCAGCGGCGGCGCCGCCCGGAGGTCTCAGAGCCGCGCGCCCGAGAGGCGCTCCACGGACCT (double strand) [katA3p]”, the entry is “no binding”. For “TGGTGTGTGGTCTGCGTCATGGCGGCAGGGTCGCTCCGTTCCGCAAGGTGCGCAATAGTTGGCTTGTCCGCTGGACAATGTGTTCAGTGCACCGCCCATGGCGTGGGGCTGCATGTACAGGATGACCACTGG (double strand) [sav_5148p]” the value was “binds”; for “TTCGGACAACTGACGGTCGTCGCCTGCATCGTGCTCATGCCGCCCACGCTCCCTTCACGTCCTCGGGCTGGTCGTAGGTGACCACCAGCTCTCCGTGCTCGGCGTCGACGCGGACCGTCGCGCCGTCCTGGACGTCGCCGCGCAGCAGGGCGCGTCCGACCAGTGTCTCGACCTCGTGGGAGATGTAGC (double strand) [trxA2p]”, “no binding”; for “GGTGTACGGAGCCTTCTGGGGTGCCTGGGTCACGAGCGTCCTCCCGTCAAAGAAGAGGGTCGTTAGGTCGCTTCGCTCACCCCAGCAGTCAACTCCGCCGACGGGACGTCGGCAACATTTGGACGGGATCCAACTTCGGTTCGGTTCTGGGCGGAGGTGATCCCGGGGCGAGACGGGACGCGTACCCCCTCAGCTCCGGTTCAACTCGAACCAGACCACCTTTCC (double strand) [katA2p]”, “no binding”. As for “GGACTCGCTGTTCTGATTGTCGGCTACCGGTGCACCGGCCTCCGTCGTGAGCGGTCCCTGCGTCACGTGCGCCTCCTGCGTCATTCCTGCAAGTCCTGTCCCTTGGCCAATGCCGGTCACGATCCTACAATGGACAATGTCTAAGTCAAGTAAAGCTCCAAAGTCACACCCGTTCGGGAACTGGTCCCCCTACTGTTAGGCTTGTCTGTATGAGTGACCTACTGGAACGACTGCGC (double strand) [catR_katA1_int]”, the entry is “binds”; as for “AGTGCTGTCGTCGCTCATCGCCTCTCCTTCGCAGGTCGATGCCGTTCATGGGCCCGTCATCCGTTGGATGACATGCAGCTTGTCGTCGTTCAGATGACATGCTACAACGGAGTCAGGTGAAGCGCATTGGCAGCAACTGCCTGAACTCATCTGGAGGTGTTTACCGTGTTGATG (double strand) [hsp18_2p]”, “no binding”. As for “CTCTCGGAACGTTGGAAAACGGCTTCCGGCCCCGTCCGTAACGGACAGGAACCGACGACCGCCGACTTGGGGATGGGCCGACGGCGCGGGTGGGGCCGGGAAGATGCACAGCGCCGTAAACGGCGTCCGTATTCCCTCCTCGGCTGTCACCTCTTAGGTCATCGCGCAGTGCCGAGGAGCGTTACGCCCAATCCGCGTGGCCCGAGTCACACCCCGTAACCACTCAAAAACGACTAGATGCGGTCATAGGTGGTCAACGATG (double strand) [hrdB]”, the binding result is listed as “no binding”.

As for “GCGGAAGGCGGCTGACCAGAGGGCCCTGCAAGAAACCAGCATAGCGGTTTGTTTGTGGCGCCCGTCACCACTTCGCCGACGCGGTACCCCCGGAGGCCAGGCACCGGTCACTGCCGCCGCCCGCGCTGCCCGCTGCCGCCGCCGAGCCGTACCGCGCGGCTCGGGCGTCGCGCATGCCGTCAGGCCCCCGGCACCTCCCTG (double strand) [avaR2p]”, the binding result was “no binding”.

“TTAGTCGTGCCCAGGTCGATGCCGACCGCACGTGCCATTTCAATTCCTCCAGCAATGACTTGAGTGGAACGGACTCAAGTGTGCATCACCCAAGTCGCTGGGTCAACAGACCTGAGTCGAGCCGACTCAAGTCTTATCCGCTCCT (double strand) [dnaK1p]”: the binding entry is on record as “binds”.
